Out of some 310,000 compounds screened, about 2,200 (0.71%) showed an effect of 50% or more. Effects have a minus sign here. This is one part of the list.

For the assay, the target named is human ether-à-go-go-related gene (hERG) potassium channel (human, UniProt Q12809). Nature of the assay: primary screen, population patch clamp on CHO cells stably expressing hERG.
Sequence of human ether-à-go-go-related gene (hERG) potassium channel (Q12809 whole entry, looked up): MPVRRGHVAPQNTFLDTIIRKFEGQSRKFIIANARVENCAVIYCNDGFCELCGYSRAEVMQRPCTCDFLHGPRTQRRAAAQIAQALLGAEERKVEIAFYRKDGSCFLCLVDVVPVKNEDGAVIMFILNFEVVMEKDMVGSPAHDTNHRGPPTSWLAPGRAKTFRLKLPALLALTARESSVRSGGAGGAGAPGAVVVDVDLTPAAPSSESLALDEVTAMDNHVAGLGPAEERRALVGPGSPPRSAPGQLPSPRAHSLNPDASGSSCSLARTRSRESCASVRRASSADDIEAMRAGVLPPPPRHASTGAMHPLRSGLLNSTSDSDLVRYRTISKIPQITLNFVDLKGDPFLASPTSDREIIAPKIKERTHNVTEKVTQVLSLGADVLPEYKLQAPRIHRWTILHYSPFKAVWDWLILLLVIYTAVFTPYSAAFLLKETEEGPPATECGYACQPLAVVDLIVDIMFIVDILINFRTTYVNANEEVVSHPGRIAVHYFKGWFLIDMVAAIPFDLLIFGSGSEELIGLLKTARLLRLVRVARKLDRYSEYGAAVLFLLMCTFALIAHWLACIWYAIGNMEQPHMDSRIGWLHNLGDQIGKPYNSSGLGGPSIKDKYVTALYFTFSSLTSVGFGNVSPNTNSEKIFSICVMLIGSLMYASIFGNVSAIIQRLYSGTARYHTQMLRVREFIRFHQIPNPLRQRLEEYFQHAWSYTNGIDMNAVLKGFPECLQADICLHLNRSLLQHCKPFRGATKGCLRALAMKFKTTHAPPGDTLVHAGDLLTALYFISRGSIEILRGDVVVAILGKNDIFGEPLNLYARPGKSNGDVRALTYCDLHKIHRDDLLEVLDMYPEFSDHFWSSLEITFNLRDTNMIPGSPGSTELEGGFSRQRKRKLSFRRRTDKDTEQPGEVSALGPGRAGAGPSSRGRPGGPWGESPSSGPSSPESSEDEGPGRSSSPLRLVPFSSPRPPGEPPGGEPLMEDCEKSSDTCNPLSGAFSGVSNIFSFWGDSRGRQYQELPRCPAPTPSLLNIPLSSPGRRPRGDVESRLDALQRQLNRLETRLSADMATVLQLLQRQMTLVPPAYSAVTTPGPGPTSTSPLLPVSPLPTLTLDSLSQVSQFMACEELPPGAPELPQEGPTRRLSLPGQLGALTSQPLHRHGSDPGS
With `Cc1ccc(-c2csc3nc(SCC(N)=O)n(Cc4ccccc4)c(=O)c23)cc1`, the “hERG current change (%, negative = inhibition) at 1uM” value is reported as 10.1%.
In the case of `CCOC(=O)c1cccc(NC(=S)N2CCN(c3ncc4c(=O)c(C(=O)O)cn(CC)c4n3)CC2)c1` it was 14.5%; in that of `N#Cc1ccc(Sc2nc3ccccc3[nH]2)cc1C#N`, 1.46%.
In the case of `O=C(NCc1ccccn1)C1CCN(S(=O)(=O)N2CCCC2)CC1`, the “hERG current change (%, negative = inhibition) at 1uM” value was -1.52%.
Consider `NC1=NS(=O)(=O)NC1c1ccc(Cl)cc1` (stereo not shown), for which the “hERG current change (%, negative = inhibition) at 1uM” value turned out to be 11.1%.
Turning to `CCCn1nnc(NC(=O)c2ccco2)n1`, the “hERG current change (%, negative = inhibition) at 1uM” value turned out to be 5.44%.
Turning to `O=C(COC(=O)C1CCCN1C(=O)C12CC3CC(CC(C3)C1)C2)c1ccc(Br)cc1` (stereo not shown), the “hERG current change (%, negative = inhibition) at 1uM” value is 6.91%.
`O=C(Nc1ccc(N2CCN(C(=O)c3ccco3)CC2)cc1)C(c1ccccc1)c1ccccc1`: the “hERG current change (%, negative = inhibition) at 1uM” value was 8.79%.
As to `COc1cc(C(=O)Nc2cccc(C)c2C)ccc1OCC(=O)N1CCOCC1`, the “hERG current change (%, negative = inhibition) at 1uM” value was 8.64%.
In the case of `Cc1cccc(N(C)C(=O)c2cnn(-c3ccccc3)c2C)c1`, the “hERG current change (%, negative = inhibition) at 1uM” value amounted to 12.7%.
As to `O=C(NNC1=NC2(CCCC2)Cc2ccccc21)c1cccnc1`, the “hERG current change (%, negative = inhibition) at 1uM” value came out at 18.4%.
With `Cc1cccc(OCCn2c(NC(=O)c3ccco3)nc3ccccc32)c1`, the “hERG current change (%, negative = inhibition) at 1uM” value was 13.7%.
In the case of `CCOC(=O)N1CCC(O)(c2cc(C)c(C)cc2C)CC1` it was 4.22%; in that of `COc1ccc(C)cc1NC(=O)c1cc(S(=O)(=O)N2CCCCC2)ccc1N1CCOCC1`, -9.63%.
With `N#Cc1ccc(-c2ccc3c(c2)OCO3)nc1SCC(=O)OCc1ccccc1`, the “hERG current change (%, negative = inhibition) at 1uM” value is recorded as 10.3%.
For `O=C(NC(=Nc1ccccc1)N1CCOCC1)Nc1ccccc1`, the “hERG current change (%, negative = inhibition) at 1uM” value turned out to be 10%.
As for `COc1ccccc1C(=O)Nc1cc2c(ccc3ccccc32)oc1=O`, the “hERG current change (%, negative = inhibition) at 1uM” value amounted to 7.07%.
For `CC1CCc2nn(CC(=O)NCc3ccc(F)cc3)cc2C1` (stereo not shown), the “hERG current change (%, negative = inhibition) at 1uM” value worked out at 8.55%.
Next, `CCN1CCN(c2cc(C)c3cc(NC(=S)N(C)Cc4ccccc4)ccc3n2)CC1`: -56.7%; `Nc1c(-c2ccccc2)cnn1C1CCS(=O)(=O)C1` (stereo not shown): 13.9%.
Take `Cc1ccc(O)c(NC(=O)C2=CC(c3cccs3)=NS(=O)(=O)N2C)c1`: the “hERG current change (%, negative = inhibition) at 1uM” value was 5.63%.
Next, `CCCNc1c(NS(=O)(=O)c2ccc(Cl)s2)c(=O)oc2ccccc12`: -13.8%; `COC(=O)c1sc2ccccc2c1NC(=O)c1ccc(S(=O)(=O)N2CCCCC2)cc1`: 6.69%; `COc1ccc(CN2CC(C(=O)NCc3cccc(OC)c3)CC2=O)cc1` (stereo not shown): 4.94%.
In the case of `CCOC(=O)N1CCN(C(=O)CS(=O)(=O)Cc2nc(-c3cccc(OC)c3)oc2C)CC1` it was -0.994%.
In the case of `O=C(N/N=C/c1ccc(O)c(O)c1)c1cccc(S(=O)(=O)N2CCCC2)c1`, the “hERG current change (%, negative = inhibition) at 1uM” value is given as -15.2%.
With `O=C(Nc1ccc(F)cc1F)c1ccco1`, the “hERG current change (%, negative = inhibition) at 1uM” value is 3.86%.
Regarding `NS(=O)(=O)c1ccc(NC(=O)COc2ccc(C(=O)c3ccc(F)cc3)cc2)cc1`, the “hERG current change (%, negative = inhibition) at 1uM” value worked out at 7.6%.
`Cc1nc(Cc2nnc(SCC(=O)Nc3c(C)cccc3C)o2)cs1`: the “hERG current change (%, negative = inhibition) at 1uM” value is reported as 15.5%.
Take `COc1ccccc1CNC(=O)c1ccc(N(C)S(=O)(=O)c2ccc(C)cc2)cc1`: the “hERG current change (%, negative = inhibition) at 1uM” value was determined as 11.8%.
Regarding `CN(C)c1ccc(/C=C/c2cc[n+](C)cc2)cc1.[I-]`, the “hERG current change (%, negative = inhibition) at 1uM” value is recorded as -0.469%.
As to `CC(C)NC(=O)CCn1ccc2cc(S(=O)(=O)N3CCCC3)ccc21`, the “hERG current change (%, negative = inhibition) at 1uM” value is on record as 16.5%.
Turning to `CC(NC(=S)NCCc1ccccc1)C(c1cccs1)N1CCN(Cc2ccccc2)CC1` (stereo not shown), the “hERG current change (%, negative = inhibition) at 1uM” value is 11.8%.
Next, `N#Cc1cc2c(nc1S(=O)(=O)Cc1ccccc1)CCCC2`: 5.82%; `COc1ccc(-n2c(-c3ccccc3Br)nc3ccccc3c2=O)cc1`: 3.22%; `Cc1csc(=O)n1CCC(=O)OC(C)C(=O)Nc1ccc(N2CCOCC2)cc1` (stereo not shown): 3.65%.
Turning to `CCOC(=O)c1oc2cc(C)cc(C)c2c1C`, the “hERG current change (%, negative = inhibition) at 1uM” value is reported as 14.1%.
In the case of `O=C(Nc1ccc(S(=O)(=O)Nc2ccccn2)cc1)c1ccccc1`, the “hERG current change (%, negative = inhibition) at 1uM” value was determined as 12.6%.
In the case of `CCOc1cc(Cl)c(S(=O)(=O)NCc2cccnc2)cc1Cl` it was 7.02%.
Turning to `COc1cccc(CN2CC(C(=O)N(C)Cc3nc4ccc(F)cc4[nH]3)CCC2=O)c1` (stereo not shown), the “hERG current change (%, negative = inhibition) at 1uM” value was determined as 8.59%.
For the compound `Cc1ccc2c(C)c(C(=O)NCCc3ccco3)oc2c1C`, the “hERG current change (%, negative = inhibition) at 1uM” value worked out at 5.36%.
Consider `O=[N+]([O-])c1cccc(/C=N/NC2CCS(=O)(=O)C2)c1` (stereo not shown), for which the “hERG current change (%, negative = inhibition) at 1uM” value was 7.34%.
Take `O=C(Nc1ccccc1)c1ccc(NCc2cccnc2)c(S(=O)(=O)N2CCOCC2)c1`: the “hERG current change (%, negative = inhibition) at 1uM” value is -1.51%.

For the origin of these results see article PMC4336329 (PLoS ONE, 2015).
